Reference: patent US20230391888A1 (Sanofi, published 2023)

T1: Human IL4 (IL004, Millipore) (human, UniProt P05112 25-153)
T1 sequence (looked up): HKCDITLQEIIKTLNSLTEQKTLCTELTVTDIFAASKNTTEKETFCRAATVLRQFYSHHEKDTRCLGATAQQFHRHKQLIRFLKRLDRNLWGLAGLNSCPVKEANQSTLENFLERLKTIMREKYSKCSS


Assays:
[1] = molecular target: T1, Human IL4 (IL004, Millipore); experiment: SPR, BIAcore 3000; antibody captured by anti-human Fc, antigen as analyte
Procedure: (§1) Surface plasmon resonance (SPR) was used to assess the binding of antigens to antibody. Binding of antigens to the antibody constructs was measured using surface plasmon resonance (SPR) with a BIAcore 3000 instrument (GE Healthcare) with HBS-EP buffer (GE Healthcare). Human IL4 (IL004, Millipore) and human IL13 (IL012, Millipore), human HER2 (1129-ER, R&D Systems), human TNFa (H8916, SIGMA Aldrich), human CTLA4 (CT4-H5229, ACRO Biosystems), human PD-1 (8986-PD, R&D Systems), and human IL6Ra (227-SR/CF, R&D Systems) were used as antigens. The anti-human Fc capture antibody (human antibody capture kit, GE Life Sciences) was immobilized via primary amine groups (11000 RU) on a research grade CM5 chip (GE Life Sciences) using standard procedures. […] Binding tests with HER2 was performed by capture of the antigen with the anti-human Fc antibody. The tested antibody constructs were used as analytes and injected at 100 nM concentration for 240 sec with a dissociation time of 300 sec at a flow rate of 30 μL/min. Binding kinetics measurements were done using the captured antibodies with injects of two-fold serial dilutions of the analytes of 3 nM to 100 nM. […] Chip surfaces were regenerated with 2 min injects of the regeneration buffer provided with the capture kit. Sensorgrams were double referenced with a blank chip surface and HBS-EP buffer blanks. […]

[2] = molecular target: T1, Human IL4 (IL004, Millipore); experiment: SPR, BIAcore 3000; antibody captured by anti-human Fc, antigen as analyte; column head says nM, but kd/ka gives M
Procedure: as §1

[3] = molecular target: T2, human HER2 (1129-ER, R&D Systems) (human, UniProt P04626 in part); experiment: SPR (BIAcore 3000), binding test with HER2 captured by the anti-human Fc antibody, constructs injected at 100 nM; response as % of theoretical Rmax
T2 construct: also called Receptor tyrosine-protein kinase erbB-2

Row | koff [1] | kon [1] | Kd [2] | binding result [3] | Binder
1 | 0.000144 s⁻¹ | 7.43e+07 M⁻¹ s⁻¹ | 1.94 pM | – | IL4 pseudo-IgG (ID 21, anti-IL4-(G4S)2-dsTrasKO2-Fc-huIgG1) (antibody, also called IL4 mAb Pseudo-IgG) light: DIQMTQSPASLSVSVGDTITLTCHASQNIDVWLSWFQQKPGNIPKLLIYKASNLHTGVPSRFSGSGSGTGFTLTISSLQPEDIATYYCQQAHSYPFTFGGGTKLEIKGGGGSGGGGS[gap - about 100 residues] heavy: QVQLQQSGPELVKPGASVKISCKASGYSFTSYWIHWIKQRPGQGLEWIGMIDPSDGETRLNQRFQGRATLTVDESTSTAYMQLRSPTSEDSAVYYCTRLKEYGNYDSFYFDVWGAGTLVTVSSGGGGSGGGGSEVQLVESGGGLVQPGGSLRLSCAASGFNIKDTYIHWVRQAPGKCLEWVAEIYPTNGYTEYADSVKGRFTISADTSKNTAYLQMNSLRAEDTAVYYCSRWGGDGFYAMDYWGQGTLVTVSS[gap - human IgG1 Fc]
2 | – | – | – | no binding (tested: 100 nM) | Anti-IL13-(G4S)2-Trestuzumab_Var1 (antibody, also called anti-IL13 pseudo-IgG with trastuzumab knockout variant 1) heavy chain: EVQLKESGPGLVAPGGSLSITCTVSGFSLTDSSINWVRQPPGKGLEWLGMIWGDGRIDYADALKSRLSISKDSSKSQVFLEMTSLRTDDTATYYCARDGYFPYAMDFWGQGTSVTVSSGGGGSGGGGSEVQLVESGGGLVQPGGSLRLSCAASGFNIKDTAIHWVRQAPGKCLEWVAEIYPTNGYTEYADSVKGRFTISADTSKNTAYLQMNSLRAEDTAVYYCSRWGGDGFAAMDYWGQGTLVTVSS[gap - human IgG1 Fc] light chain: DIVLTQSPASLAVSLGQRATISCRASESVDSYGQSYMHWYQQKAGQPPKLLIYLASNLESGVPARFSGSGSRTDFTLTIDPVQAEDAATYYCQQNAEDSRTFGGGTKLEIKGGGGSGGGGS[gap - about 100 residues]
